Like-named read-outs stand apart in the source and are kept apart here.
Columns and labels:
[1] = test system: T47 D breast cancer cell line; experiment: Cell growth inhibition (SRB), extended panel; type: cell-based; details: Homo sapiens, T47D, read-out: GI50 Range
[2] = test system: HS578T breast cancer cell line; experiment: Cell growth inhibition (SRB), extended panel; type: cell-based; details: Homo sapiens, Hs-578T, read-out: GI50 Range
[3] = test system: BT474 breast cancer cell line; experiment: Cell growth inhibition (SRB), extended panel; type: cell-based; details: Homo sapiens, BT-474, read-out: GI50 Range
[4] = test system: SKBR3 breast cancer cell line; experiment: Cell growth inhibition (SRB), extended panel; type: cell-based; details: Homo sapiens, SK-BR-3, read-out: GI50 Range
[5] = test system: HCT-15 colon cancer cell line; experiment: Cell growth inhibition (SRB), extended panel; type: cell-based; details: Homo sapiens, HCT-15, read-out: GI50 Range
[6] = test system: HCT116+/− colon cancer cell line; experiment: Cell growth inhibition (SRB), extended panel; type: cell-based; details: Homo sapiens, HCT-116, read-out: GI50 Range
[7] = test system: HCT116+/+ colon cancer cell line; experiment: Cell growth inhibition (SRB), extended panel; type: cell-based; details: Homo sapiens, HCT-116, read-out: GI50 Range
[8] = test system: SK-OV-3 ovarian cancer cell line; experiment: Cell growth inhibition (SRB), extended panel; type: cell-based; details: Homo sapiens, SK-OV-3, read-out: GI50 Range
[9] = test system: SW 626 ovarian cancer cell line; experiment: Cell growth inhibition (SRB), extended panel; type: cell-based; details: Homo sapiens, SW626, read-out: GI50 Range
[10] = test system: PC-3 prostate cancer cell line; experiment: Cell growth inhibition (SRB), extended panel; type: cell-based; details: read-out: GI50 Range
[11] = test system: MCF-7 luminal breast cancer cell line; type: cell-based; details: Homo sapiens, MCF7, 120 h; MCF-7 luminal breast cancer cell line; SRB assay after 5 days culture; read-out: Cell Line GI50 Range MCF-7
[12] = test system: MDA-MB-468 basal breast cancer cell line; type: cell-based; details: Homo sapiens, 120 h; MDA-MB-468 basal breast cancer cell line; SRB assay after 5 days culture; read-out: Cell Line GI50 Range MDA-MB-468
[13] = test system: HCC1954 basal breast cancer cell line; type: cell-based; details: Homo sapiens, HCC1954 basal breast cancer cell line, SRB assay after 5 days culture, read-out: Cell Line GI50 Range HCC-1954
[14] = test system: SW620 colon cancer cells; type: cell-based; details: Homo sapiens, 120 h; SW-620 colon cancer cell line; SRB assay after 5 days culture; read-out: Cell Line GI50 Range SW-620
[15] = test system: A549 lung cancer cells; type: cell-based; details: Homo sapiens, 120 h; A549 lung cancer cell line; SRB assay after 5 days culture; read-out: Cell Line GI50 Range A-549
[16] = test system: human mammary epithelial primary cells (HMEC); details: 120 h, read-out: Cell Line GI50 Range HMEC
[17] = test system: 184A1 immortalized breast cell line; experiment: Cell growth inhibition (SRB), extended panel; type: cell-based; details: 184A1, read-out: GI50 Range

GI50 [11]	GI50 [12]	GI50 ([13]; 120 h)	GI50 [14]	GI50 [15]	SMILES	further results
					COc1ccc2c(c1)[C@]1(C[C@H]1c1ccc3c(-c4ccc(N5CCN(C)CC5)nc4)n[nH]c3c1)C(=O)N2 (racemic) [Example A13, (1R*,2S*)-5′-Methoxy-2-(3-(6-(4-methylpiperazin-1-yl)pyridin-3-yl)-1H-indazol-6-yl)spiro[cyclopropane-1,3′-indolin]-2′-one]	GI50 [1]: < 50000 nM; GI50 [2]: < 50000 nM; GI50 [3]: < 50000 nM; GI50 [4]: < 50000 nM; GI50 [5]: < 50000 nM; GI50 [6]: < 50000 nM; GI50 [7]: < 50000 nM; GI50 [8]: < 50000 nM; GI50 [9]: < 50000 nM; GI50 [10]: < 50000 nM
1000 to 10000 nM	< 100 nM	< 100 nM	< 100 nM	< 100 nM	CN(C)Cc1ccc(/C=C/c2n[nH]c3cc(C4C[C@@]45C(=O)N(CC(N)=O)c4ccccc45)ccc23)cc1 (mixture of isomers) [Example A160, 2-((1R*,2S*)-(E)-2-(3-(4-((dimethylamino)methyl)styryl)-1H-indazol-6-yl)-2′-oxospiro[cyclopropane-1,3′-indoline]-1′-yl)acetamide 2,2,2-trifluoroacetate]	GI50 [16]: > 10000 nM
					CN(C)Cc1ccc(/C=C/c2n[nH]c3cc([C@@H]4C[C@@]45C(=O)Nc4ccccc45)ccc23)cc1 (relative stereo) [Example A23, (1R*,2S*)-(E)-2-(3-(4-((dimethylamino)methyl)styryl)-1H-indazol-6-yl)spiro[cyclopropane-1,3′-indolin]-2′-one 2,2,2-trifluoroacetate]	GI50 [3]: < 50000 nM; GI50 [4]: < 50000 nM; GI50 [5]: < 50000 nM; GI50 [6]: < 50000 nM; GI50 [7]: < 50000 nM; GI50 [8]: < 50000 nM; GI50 [10]: < 50000 nM; GI50 [17]: < 50000 nM
1000 to 10000 nM	1000 to 10000 nM	> 10000 nM	> 10000 nM	1000 to 10000 nM	O=C1Nc2ccccc2[C@]12C[C@H]2c1ccc2c(-c3ccc(CN4CCOCC4)cc3)n[nH]c2c1 (relative stereo) [Example A154, (1R*,2S*)-2-(3-(4-(morpholinomethyl)phenyl)-1H-indazol-6-yl)spiro [cyclopropane-1,3′-indolin]-2′-one 2,2,2-trifluoroacetate]	
1000 to 10000 nM	< 100 nM	1000 to 10000 nM	100 to 1000 nM	< 100 nM	CN1CCN(c2ccc(/C=C/c3n[nH]c4cc([C@@H]5C[C@@]56C(=O)Nc5ccccc56)ccc34)cn2)CC1 (relative stereo) [Example A157, (1R*,2S*)-2-(3-((E)-2-(6-(4-methylpiperazin-1-yl)pyridin-3-yl)vinyl)-1H-indazol-6-yl)spiro[cyclopropane-1,3′-indolin]-2′-one bis-2,2,2-trifluoroacetate]	
1000 to 10000 nM	100 to 1000 nM	1000 to 10000 nM	100 to 1000 nM	100 to 1000 nM	Cc1cc(/C=C/c2n[nH]c3cc([C@@H]4C[C@@]45C(=O)Nc4ccccc45)ccc23)ccn1 (relative stereo) [Example A161, (1R*,2S*)-2-(3-((E)-2-(2-methylpyridin-4-yl)vinyl)-1H-indazol-6-yl) spiro[cyclopropane-1,3′-indolin]-2′-one]	
< 100 nM	< 100 nM		< 100 nM	< 100 nM	COc1ccc2c(c1)[C@]1(C[C@H]1c1ccc3c(/C=C/c4ccc(N5CCNCC5)nc4)n[nH]c3c1)C(=O)N2 (relative stereo) [Example A163, (1R*,2S*)-5′-methoxy-2-(3-((E)-2-(6-(piperazin-1-yl)pyridin-3-yl)vinyl)-1H-indazol-6-yl)spiro[cyclopropane-1,3′-indolin]-2′-one 2,2,2-trifluoroacetate]	GI50 ([13]; HCC1954, 120 h): 1000 to 10000 nM
100 to 1000 nM	< 100 nM		< 100 nM	< 100 nM	CN(C)Cc1ccc(/C=C/c2n[nH]c3cc([C@@H]4C[C@@]45C(=O)Nc4ncccc45)ccc23)cc1 (relative stereo) [Example A172, (1R*,2S*)-(E)-2-(3-(4-((dimethylamino)methyl)styryl)-1H-indazol-6-yl) spiro[cyclopropane-1,3′-pyrrolo[2,3-b]pyridin]-2′(1′H)-one 2,2,2-trifluoroacetate]	GI50 ([13]; HCC1954, 120 h): 1000 to 10000 nM
100 to 1000 nM	100 to 1000 nM	100 to 1000 nM	100 to 1000 nM	100 to 1000 nM	Cc1ccc2c(c1)[C@]1(C[C@H]1c1ccc3c(-c4ccc(N5CCN(C)CC5)cc4)n[nH]c3c1)C(=O)N2 (relative stereo) [Example A173, (1R*,2S*)-5′-methyl-2-(3-(4-(4-methylpiperazin-1-yl)phenyl)-1H-indazol-6-yl)spiro[cyclopropane-1,3′-indolin]-2′-one 2,2,2-trifluoroacetate]	
< 100 nM	< 100 nM	< 100 nM	< 100 nM	< 100 nM	COc1ccc2c(c1)[C@]1(CC1c1ccc3c(/C=C/c4cc(F)c(CN(C)C)c(F)c4)n[nH]c3c1)C(=O)N2 (stereo in doubt) [Example A215, (1R*,2S*)-(E)-2-(3-(4-((dimethylamino)methyl)-3,5-difluorostyryl)-1H-indazol-6-yl)-5′-methoxyspiro[cyclopropane-1,3′-indolin]-2′-one 2,2,2-trifluoro acetate]	

SMILES	GI50 [11]	GI50 [12]	GI50 ([13]; 120 h)	GI50 [14]	GI50 [15]	further results
O=C1Nc2ccc(F)cc2[C@]12C[C@H]2c1ccc2c(/C=C/c3ccc(N4CCOCC4)nc3)n[nH]c2c1 (relative stereo) [Example A207, (1R*,2S*)-5′-fluoro-2-(3-((E)-2-(6-morpholinopyridin-3-yl)vinyl)-1H-indazol-6-yl)spiro[cyclopropane-1,3′-indolin]-2′-one 2,2,2-trifluoroacetate]	100 to 1000 nM	100 to 1000 nM		< 100 nM	< 100 nM	GI50 ([13]; HCC1954, 120 h): 1000 to 10000 nM

— patent US8263596B2, “Kinase inhibitors and method of treating cancer” (University Health Network, priority 2010, dated 2012)
